± gives the standard error. This sample is rich in variants without activity.
B1: glmS ribozyme (parent)
chain: AUAAAAGCGCCAGAACUACAGAAAUGUAGUUGACGAGGAGGAGGUUUAUCGAAUUUUCGGCGGAUGCCUCCAAA

What was measured:
Conditions in all cases: with glucosamine-6-phosphate
glucosamine-6-phosphate [1] = variants of: B1; assay: self-cleavage kobs at 40 uM GlcN6P; higher = faster cleavage; RNA array
How it was run: (§1)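 kcat and KM were obtained from weighted Michaelis–Menten fits across concentrations of kobs values. Those came from one- or two-exponential decay fits to per-tile medians normalised to baseline and to non-cleaving reference variants. The variants were barcoded ribozymes transcribed in situ by E. coli RNA polymerase on sequenced MiSeq chips and tracked through a hybridised Cy3 probe at 37 °C, with 40 μM to 10 mM glucosamine-6-phosphate in HEPES/KCl/Mg(OAc)2 buffer flowed in.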

glucosamine-6-phosphate [2] = variants of: B1; assay: self-cleavage kobs at 160 uM GlcN6P; higher = faster cleavage; RNA array
How it was run: as §1

glucosamine-6-phosphate [3] = variants of: B1; assay: self-cleavage kobs at 2500 uM GlcN6P; higher = faster cleavage; RNA array
How it was run: as §1

glucosamine-6-phosphate [4] = variants of: B1; assay: self-cleavage kobs at 10000 uM GlcN6P; higher = faster cleavage; RNA array
How it was run: as §1

glucosamine-6-phosphate [5] = variants of: B1; assay: self-cleavage kobs at 640 uM GlcN6P; higher = faster cleavage; RNA array
How it was run: as §1

| Variant | self-cleavage kobs at 40 uM GlcN6P (glucosamine-6-phosphate [1]) | self-cleavage kobs at 160 uM GlcN6P (glucosamine-6-phosphate [2]) | self-cleavage kobs at 2500 uM GlcN6P (glucosamine-6-phosphate [3]) | self-cleavage kobs at 10000 uM GlcN6P (glucosamine-6-phosphate [4]) | self-cleavage kobs at 640 uM GlcN6P (glucosamine-6-phosphate [5]) |
| --- | --- | --- | --- | --- | --- |
| AUAAAAGCACCAGAACUACAGAAAUGUAGUUGACGGGGAGGAGGUUUAUCGAAUUUUCGGCGGAUGCCUCCAAA [G9A A36G] | < 1e-05 s⁻¹ | < 1e-05 s⁻¹ | < 1e-05 s⁻¹ | < 1e-05 s⁻¹ |  |
| AUAAAAGCACCAGAACUACAGAAAUGUAGUUGACGAGGGGGCGGUUUAUCGAAUUUUCGGCGGAUGCCUCCAAA [G9A A39G A42C] | < 1e-05 s⁻¹ |  |  |  |  |
| AUAAAAGCACCAGAACUACAGAAAUGUAGUUGACGAGGAGGGUGUUUAUCGAAUUUUCGGAGGAUGCCUCCAAA [G9A A42G G43U C61A] | < 1e-05 s⁻¹ |  |  |  | < 1e-05 s⁻¹ |
| AUAAAAGCACCAGAACUACAGAAAUGUAGUUGACGAGGAGGAGGUUUCUCGAAUUUUCGGCGGAUGCCUCCAAA [G9A A48C] | < 1e-05 s⁻¹ | < 1e-05 s⁻¹ | < 1e-05 s⁻¹ | < 1e-05 s⁻¹ | < 1e-05 s⁻¹ |
| AUAAAAGCACCAGAACUACAGAAAUGUAGUUGACGAGGAGGAGGUUUGUCGAAUUUUCGGCGUAUGCCUCCAAA [G9A A48G G63U] | < 1e-05 s⁻¹ |  |  |  |  |
| AUAAAAGCACCAGAACUACAGAAAUGUAGUUGACGAGGAGGAGGUUUAUCGCAUUUUCGGCGGAUGCCUCCAAA [G9A A52C] | < 1e-05 s⁻¹ | < 1e-05 s⁻¹ | < 1e-05 s⁻¹ |  | < 1e-05 s⁻¹ |
| AUAAAAGCACCAGAACUACAGAAAUGUAGUUGACGAGGAGGAGGUUUAUCGUAUUUUCGGCGGAUGCCUCCAAA [G9A A52U] | < 1e-05 s⁻¹ | < 1e-05 s⁻¹ | < 1e-05 s⁻¹ | < 1e-05 s⁻¹ | < 1e-05 s⁻¹ |
| AUAAAAGCAUCAGAACUACAGAAAUGUAGUUGACGUGGAGGAGGUUUAUCGAAAUUUCGGCGGAUGCCUCCAAA [G9A C10U A36U U54A] | < 1e-05 s⁻¹ |  |  |  |  |
| AUAAAAGCACAAGAACUACAGAAAUGUAGUUGACGAGGAGGAGGUUUAUCGAAUUUUCGGCGGAUGCCUCCAAA [G9A C11A] | < 1e-05 s⁻¹ | < 1e-05 s⁻¹ |  |  |  |
| AUAAAAGCACGAGAACUACAGAAAUGUAGUUGACGAGGAGGAGGUUUAUCGAGUUUUCGGCGGAUGCCUCCAAA [G9A C11G A53G] | < 1e-05 s⁻¹ |  |  |  |  |
| AUAAAAGCACCAGAACUACAGAAAUGUAGUUGAGGAGGAGGAGGUUUAUCGAAUUUUCGGCGGAUGCCUCCAAA [G9A C34G] | < 1e-05 s⁻¹ | < 1e-05 s⁻¹ | < 1e-05 s⁻¹ | < 1e-05 s⁻¹ |  |
| AUAAAAGCACCAGAACUACAGAAAUGUAGUUGAGGAGGAGGGGGUUUAUAGAAUUUUCGGCGGAUGCCUCCAAA [G9A C34G A42G C50A] | < 1e-05 s⁻¹ |  | < 1e-05 s⁻¹ | < 1e-05 s⁻¹ |  |
| AUAAAAGCACCAGAACUACAGAAAUGUAGUUGAGGAGGAGGAGGUCUAUCGAAUUUUCGGUUGAUGCCUCCAAA [G9A C34G U46C C61U G62U] | < 1e-05 s⁻¹ |  |  |  |  |
| AUAAAAGCACCAGAACUACAGAAAUGUAGUUGACGAGGAGGAGGUUUAUCGAAUUUUGGGCGGAUGCCUCCAAA [G9A C58G] | < 1e-05 s⁻¹ |  |  |  |  |
| AUAAAAGCACCAGAACUACAGAAAUGUAGUUGACGAGGAGGAGGUUUAUCGAAUUUUGGGCGGACGCCUCCAAA [G9A C58G U65C] | < 1e-05 s⁻¹ |  | < 1e-05 s⁻¹ |  | < 1e-05 s⁻¹ |
| AUAAAAGCACCAGAACUACAGAAAUGUAGUUGACGAGGAGGAGGUUUAUCGAAUUUUCGGCGGAUGCCUGCAAA [G9A C70G] | < 1e-05 s⁻¹ | < 1e-05 s⁻¹ | < 1e-05 s⁻¹ | < 1e-05 s⁻¹ | < 1e-05 s⁻¹ |
| AUAAAAGCACCAGAACUACAGAAAUGUAGUUGACGAGGAGGAGGUUUAUCGAAUUUUCGGCGGAUGCCUCUAAA [G9A C71U] | < 1e-05 s⁻¹ | < 1e-05 s⁻¹ |  |  | < 1e-05 s⁻¹ |
| AUAAAAGCACCAUAACUACAGAAAUGUAGUUGACGAGGAGGAGGUUUAUGGAAUUUACGGCGGAUGCCUCCAAA [G9A G13U C50G U57A] | 0.000665 ± 0.00023 s⁻¹ |  |  | 9.79e-05 ± 2e-05 s⁻¹ |  |
| AUAAAAGCACCAGAACUACAGAAAUGUAUUUGACGAGGAGGAGGUUUAUCGAAUUUUCGGCGGAUGCCUCCAAA [G9A G29U] | < 1e-05 s⁻¹ | < 1e-05 s⁻¹ | < 1e-05 s⁻¹ |  | < 1e-05 s⁻¹ |
| AUAAAAGCACCAGAACUACAGAAAUGUAGUUCACGAGGAGGAAGUUUAUCGAAUUUUCGGCGGAUGCGUCCAAA [G9A G32C G43A C68G] | < 1e-05 s⁻¹ |  |  |  |  |
| AUAAAAGCACCAGAACUACAGAAAUGUAGUUGACGAGCAGGAGGUUUAUCGAAUUUUCGGCGGAUGCUUCCAAA [G9A G38C C68U] | < 1e-05 s⁻¹ |  |  |  |  |
| AUAAAAGCACCAGAACUACAGAAAUGUAGUUGACGAGGAUGAGGUUUAUCGAAUUUUCGGCGGAUGCCUCCAAA [G9A G40U] | < 1e-05 s⁻¹ | < 1e-05 s⁻¹ | < 1e-05 s⁻¹ | < 1e-05 s⁻¹ | < 1e-05 s⁻¹ |
| AUAAAAGCACCAGAACUACAGAAAUGUAGUUGACGAGGAGCAGGUUUAUCGAAUUUUCGGCGGAUGCCUCCAAA [G9A G41C] | < 1e-05 s⁻¹ | < 1e-05 s⁻¹ | < 1e-05 s⁻¹ | < 1e-05 s⁻¹ | < 1e-05 s⁻¹ |
| AUAAAAGCACCAGAACUACAGAAAUGUAGUUGACGAGGAGGAGGUUUAUCGAAUUUUCUGCGGAUGCCUCCAAA [G9A G59U] | < 1e-05 s⁻¹ | < 1e-05 s⁻¹ |  | < 1e-05 s⁻¹ | < 1e-05 s⁻¹ |
| AUAAAAGCACCAGAACUACAGAAAUGUAGAUGACGAGGUGGAAGUUUAUCGAAUUUUCGGCGGAUGCCUCCAAA [G9A U30A A39U G43A] | < 1e-05 s⁻¹ | < 1e-05 s⁻¹ |  |  | < 1e-05 s⁻¹ |
| AUAAAAGCACCAGAACUACAGAAAUGUAGUGGACGAGGGGGAGGUUUCUCGAAUUUUCGCCGGAUGCCUCCAAA [G9A U31G A39G A48C G60C] | < 1e-05 s⁻¹ |  |  |  |  |
| AUAAAAGCACCAGAACUACAGAAAUGUAGUUGACGAGGAGGAGGUUUAUCGAAAUUUCGGCGGAUGCCUCCAAA [G9A U54A] | < 1e-05 s⁻¹ |  |  |  | < 1e-05 s⁻¹ |
